Values joined by “and” are separate entries in the source; they are usually repeats but may differ in a detail not shown here. Equal values may be shown once.
T1: biotinylated human CD122/132 (human, UniProt P14784 27-239; P31785 23-254, limits assumed, biotinylated (site not stated))
T1 construct: Bought heterodimeric reagent; also called CD122/CD132
T1 sequence (looked up) 1: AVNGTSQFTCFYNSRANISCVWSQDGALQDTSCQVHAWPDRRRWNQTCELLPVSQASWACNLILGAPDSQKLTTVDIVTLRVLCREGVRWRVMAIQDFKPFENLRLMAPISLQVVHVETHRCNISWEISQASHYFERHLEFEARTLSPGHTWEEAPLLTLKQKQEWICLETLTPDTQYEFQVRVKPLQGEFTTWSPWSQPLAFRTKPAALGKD
T1 sequence (looked up) 2: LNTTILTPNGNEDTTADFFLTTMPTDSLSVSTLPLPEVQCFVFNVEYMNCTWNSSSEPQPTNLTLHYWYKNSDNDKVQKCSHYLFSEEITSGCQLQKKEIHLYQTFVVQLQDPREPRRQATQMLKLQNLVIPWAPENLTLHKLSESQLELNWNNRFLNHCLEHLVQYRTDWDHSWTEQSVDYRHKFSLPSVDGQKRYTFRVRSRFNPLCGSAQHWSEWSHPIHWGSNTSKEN

B1: hu147-IL15 bifunctional antibody SPGL008 (other)
heavy: QVQLVQSGAEVKKPGSSVKVSCKASGYIFTADWIYWVRQAPGQGLEWMGRIYPGVDTTYYAQKFQGRVTITADKSTSTAYMELSSLRSEDTAVYYCARGGEVRRDFYALDYWGQGTTVTVSS[in this place human IgG1 constant region with changes]GGGGSGGGGSGGGGSITCPPPMSVEHADIWVKSYSLYSRERYICNSGFKRKAGTSSLTECVLNKATNVAHWTTPSLKCIRGGGGSGGGGSGGGGSGGGGSGGGGSGGGGS[in this place about 120 residues]
light: EIVMTQSPPTLSLSPGERVTLSCRASENVGTYVSWYQQKPGQAPRLLIYGASNRYTGIPARFSGSGSGTDFTLTISSLQPEDFAVYYCGQRYSYPFTFGGGTKLEIKRTVAAPSVFIFPPSDEQLKSGTASVVCLLNNFYPREAKVQWKVDNALQSGNSQESVTEQDSKDSTYSLSSTLTLSKADYEKHKVYACEVTHQGLSSPVTKSFNRGEC
notes: About 190 kDa
B2: hu147-IL15 bifunctional antibody SPGL007 (other)
heavy: QVQLVQSGAEVKKPGSSVKVSCKASGYIFTADWIYWVRQAPGQGLEWMGRIYPGVDTTYYAQKFQGRVTITADKSTSTAYMELSSLRSEDTAVYYCARGGEVRRDFYALDYWGQGTTVTVSS[in this place human IgG1 constant region]GGGGSGGGGSGGGGSITCPPPMSVEHADIWVKSYSLYSRERYICNSGFKRKAGTSSLTECVLNKATNVAHWTTPSLKCIRGGGGSGGGGSGGGGSGGGGSGGGGSGGGGS[in this place about 120 residues]
light: EIVMTQSPPTLSLSPGERVTLSCRASENVGTYVSWYQQKPGQAPRLLIYGASNRYTGIPARFSGSGSGTDFTLTISSLQPEDFAVYYCGQRYSYPFTFGGGTKLEIKRTVAAPSVFIFPPSDEQLKSGTASVVCLLNNFYPREAKVQWKVDNALQSGNSQESVTEQDSKDSTYSLSSTLTLSKADYEKHKVYACEVTHQGLSSPVTKSFNRGEC
notes: About 190 kDa

Molecular target: T1, biotinylated human CD122/132
Test: sandwich ELISA: antibody on coated human CD276-ECD, biotinylated CD122/132 detected with SA-HRP
Experimental: The method was as follows: The plates were pre-coated with human CD276-ECD protein diluted to 2 μg/mL in the coating solution (50 mM carbonate coating buffer, pH 9.6) and incubated at 4° C. overnight. The plates were then blocked with 5% skim milk powder at 37° C. for 2 hours. Afterward, the plates were washed 3 times with PBST, and the to-be-tested antibody, diluted in 1% BSA-PBST at various gradients, was added to the blocked plates at 100 μL per well. The plates were incubated at 37° C. for 1 hour. […] Following 3 additional washes with PBST, diluted HRP-conjugated streptavidin (SA) (purchased from Pierce) was added, and the plates were incubated at 37° C. for 30 minutes. After 3 more washes with PBST, residual droplets were removed by blotting on absorbent paper. Then, 100 μL of TMB substrate (purchased from KPL) was added to each well, and the plates were incubated at room temperature (20±5° C.) in the dark for 5 minutes.
As a control, hu147 could bind to CD276 (as shown in Embodiment 8), but not CD122/CD132.

Row | Binder | EC50
1 | B1 | 0.0177 µg/mL and 0.09 nM
2 | B2 | 0.0151 µg/mL and 0.08 nM

From patent US20250368740A1 (SHENZHEN BAISHITONG TECHNOLOGY DEVELOPMENT, published 2025)
